# Test results published in PubChem BioAssay AID1346428 (National Center for Advancing Translational Sciences (NCATS), 2018).
# The campaign covered roughly 48,000 compounds. About 1,200 (2.5%) were called active. About 2% were inconclusive and are not listed.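 The calls were made as follows: active = activation of at least 60% and not above a set upper limit (about 1 call in 100 departs from these limits); inconclusive = activation of 40% to 60%, or above that upper limit; inactive = activation under 40%.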 The list shows a part of the results.
# Molecular target: Probable G-protein coupled receptor 32 (Homo sapiens) (UniProt O75388)
# Sequence of UniProt O75388 (O75388 whole entry, looked up): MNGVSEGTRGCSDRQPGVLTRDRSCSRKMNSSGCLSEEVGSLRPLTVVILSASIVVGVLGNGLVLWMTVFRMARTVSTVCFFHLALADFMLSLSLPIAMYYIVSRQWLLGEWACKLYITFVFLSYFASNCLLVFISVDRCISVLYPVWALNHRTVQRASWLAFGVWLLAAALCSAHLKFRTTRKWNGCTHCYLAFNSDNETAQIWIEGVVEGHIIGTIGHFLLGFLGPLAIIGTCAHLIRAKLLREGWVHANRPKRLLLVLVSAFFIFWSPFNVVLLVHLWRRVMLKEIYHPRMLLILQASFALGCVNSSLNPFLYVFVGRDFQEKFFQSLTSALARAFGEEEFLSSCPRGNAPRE
# Assay: qHTS for Agonists of Human Resolvin D1 Receptor DRV1; also: 0% is about no effect
# Conditions: CHO-K1 GPR32 beta-arrestin PathHunter luminescence, 90 min; at 76.9 µM; stronger effect = higher value; zero percent set by DMSO-only wells
# Method in brief: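 Cells are plated overnight, treated with compounds in DMSO for 90 minutes at 37 °C, and developed with PathHunter detection reagent for 1 hour before luminescence is read; signal reflects beta-arrestin binding to GPR32 in engineered CHO-K1 cells.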
row,Structure (SMILES),activation
1,CCS(=O)(=O)c1ccccc1C(=O)Nc1ccc(-c2nc3ccccc3s2)cc1,inactive: -16.1%
2,CC(C)CCNC(=O)CN1C(=O)c2cccnc2Sc2ccccc21,inactive: -16.1%
3,CC(=O)c1cccc(NC(=O)Cc2noc3ccccc23)c1,inactive: -21.9%
4,COc1cccc(NC(=O)CSC2=Nc3ccccc3C3=NC(CC(=O)NCc4ccc5c(c4)OCO5)C(=O)N23)c1 (configuration not stated),inactive: 23.5%
5,Cc1cc(C)c(NC(=O)C(=O)NCC(c2cccnc2)N2CCN(Cc3ccccc3)CC2)c(C)c1 (configuration not stated),inactive: -10.4%
6,Cc1ccccc1-c1noc(-c2ccc(N3CCN(C)CC3)c([N+](=O)[O-])c2)n1,inactive: -9.06%
7,CCCCNC(=O)c1cnc2sc(N3CCCCCC3)nn2c1=O,inactive: -6.96%
8,COc1ccc(C)cc1NC(=O)Nc1ccccc1OCc1cc(=O)n2ccccc2n1,inactive: -15%
9,CSc1nn(Cc2cccc(Cl)c2)c(N(C(C)=O)C(C)=O)c1S(=O)(=O)c1ccccc1,active: 76.1%
10,COc1ccc2c(c1)c1c(c(=O)n(-c3ccccc3)c(=O)n1CC(=O)NCc1ccc(C)cc1)n2C,inactive: 0.73%
11,COc1ccc(C2C(=O)N(C3CCC(C)CC3)CC(=O)N2C2CCCC2)cc1OC (configuration not stated),inactive: -12.2%
12,COc1ccc(CC(=O)N(Cc2nc(-c3ccc(C)cc3)no2)C(C)C)cc1,inactive: -3.35%
13,O=C(CSc1nc2nccnc2c(=O)n1CCc1c[nH]c2ccccc12)Nc1ccc(F)cc1,inactive: 8.51%
14,CCN(C(=O)c1c(C)oc2ncn(CC(C)C)c(=O)c12)c1cccc(Cl)c1,inactive: -14.2%
15,CCCCNC(=O)CCn1c(=O)c2cccn2c2cccnc21,inactive: -5.19%
16,COc1ccc(C)cc1NC(=O)c1cc(S(=O)(=O)N2CCc3ccccc3C2)ccc1F,inactive: -10.5%
17,Cc1oc(-c2ccc(C(=O)NCc3ccccc3Cl)cc2)nc1CN1CCc2ccccc21,inactive: -1.77%
18,CCCn1c(CCC(=O)Nc2ccc(C)c(Cl)c2)nc2cccnc21,inactive: -24.9%
19,O=C(CC1N=C2c3ccccc3N=C(SCc3cccc(Cl)c3)N2C1=O)NCCc1ccccc1 (configuration not stated),inactive: 40.8%
20,CCC1=C(c2ccc(C)cc2)S(=O)(=O)N=C1N1CCC(C(=O)NCCc2ccc(Cl)cc2)CC1,inactive: -15.9%
21,Cc1ccc(CCNC(=O)c2c[nH]c3ccc(S(=O)(=O)Nc4cccc(C(F)(F)F)c4)cc3c2=O)cc1,inactive: -14.8%
22,Cc1ccc(S(=O)(=O)C(CNC(=O)C(=O)NCCc2ccc(Cl)cc2)c2cccs2)cc1 (configuration not stated),inactive: -0.141%
